Data from the supplement of paper PMC6135742.
Structures can show the parent of a compound that is named as a salt. ± gives the standard deviation of the averaged measurements. The full ranking holds about 2,600 compounds; the median of “MBP+ mature oligodendrocyte number relative to DMSO vehicle control” is about -0.34, and the highest 2% start at about 13. The list shows a part of the results.

tested on: jimpy (Plp1 jimpy) mouse iPSC-derived oligodendrocyte progenitor cells; assay: MBP+ mature oligodendrocyte number relative to DMSO vehicle control (SDs above negative control mean); higher = more surviving jimpy oligodendrocytes (rescue); details: 10 µM; 3 days
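Also: 10 µM single dose with 3-day oligodendrocyte differentiation.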

SMILES	MBP+ mature oligodendrocyte number
c1ccc(-c2ccccn2)nc1 [2,2'-Bipyridyl]	-0.073
O=C(O)c1ccc2c(c1)nc(Nc1cccc(Cl)c1)c1ccncc12 [CX-4945 (Silmitasertib)]	< -4.81
CC1(C)O[C@@H]2C[C@H]3[C@@H]4CCC5=CC(=O)C=C[C@]5(C)[C@H]4[C@@H](O)C[C@]3(C)[C@]2(C(=O)CO)O1 [Desonide]	9.44
NCCCCCNCC12CC3CC(CC(C3)C1)C2 [IEM 1754 dihydrobroMide]	-4.82
Cc1cc(OCCCS(C)(=O)=O)cc(C)c1-c1cccc(COc2ccc3c(c2)OC[C@H]3CC(=O)O)c1	-0.69
CCN(CC)C(=S)SSC(=S)N(CC)CC [Disulfiram]	-1.37
O=C(CCCCCN1C(=O)c2cccc3cccc(c23)C1=O)NO [Scriptaid]	-4.58
C=C[C@@]1(C)CC(=O)[C@]2(O)[C@@]3(C)[C@@H](O)CCC(C)(C)[C@@H]3[C@H](O)[C@H](OC(C)=O)[C@@]2(C)O1 [Forskolin]	3.92 ± 2
COc1cc2/c(=N/c3ccc(Br)cc3F)nc[nH]c2cc1OCC1CCN(C)CC1 [Vandetanib (ZD6474)]	< -6.7
Nc1c2c(nc3ccccc13)CCCC2 [9-Amino-1,2,3,4-tetrahydroacridine hydrochloride]	-0.865
O=c1sn(-c2cccc3ccccc23)c(=O)n1Cc1ccccc1 [Tideglusib]	-0.769
O=c1cc(-c2ccccc2)oc2cc(O)cc(O)c12 [Chrysin]	4.59
N[C@@H](CS(=O)O)C(=O)O [L-Cysteinesulfinic Acid]	0.196
COCCCN1CCC(NC(=O)c2cc(Cl)c(N)c3c2OCC3)CC1 [Prucalopride]	4.95
COCCCN1CCC(NC(=O)c2cc(Cl)c(N)c3c2OCC3)CC1 [Prucalopride Succinat]	1.59
COC(=O)C1=C(C#N)NC(C)=C(C(=O)OC(C)C)C1c1cccc([N+](=O)[O-])c1 (centres undefined) [Nilvadipine]	-5.69
N#Cc1cc2nc(O)c(O)nc2cc1[N+](=O)[O-] [CNQX disodium]	-0.0207
C[C@@H](CN1CCC(Cc2ccccc2)CC1)[C@@H](O)c1ccc(O)cc1 [Ro 25-6981 hydrochloride]	14.6
C[C@H](CCC(=O)O)[C@H]1CC[C@H]2[C@@H]3[C@@H](O)C[C@@H]4C[C@H](O)CC[C@]4(C)[C@H]3CC[C@]12C [Ursodiol]	3.04
O=C(Nc1ccncc1)c1cc([N+](=O)[O-])ccc1Cl	-3.33 ± 1.5
Cc1cc(NC(=O)Nc2ccc3c(ccn3C)c2)sn1	0.0777
O=C(CCCN1CCN(c2ccccn2)CC1)c1ccc(F)cc1 [Azaperone]	1.93
Cc1ccc(=O)n(-c2ccccc2)c1 [Pirfenidone]	1.49 ± 1.9
CS(=O)(=O)c1ccc(-n2nc(C(F)(F)F)cc2-c2ccc(F)cc2)cc1	-0.559
Cc1cc(CN2CCN(c3c(Br)cnc4nc(-c5ccc(N6CCN(C)CC6)cc5)[nH]c34)CC2)no1	-5.93
CN(C)C(=O)[C@H](O)[C@H](Cc1ccccc1)NC(=O)c1cc2cc(Cl)ccc2[nH]1	9.6 ± 4.4
O=C(Oc1cc(S(=O)(=O)c2ccccc2)ccc1[N+](=O)[O-])c1ccc(Cl)cc1	2.91

SMILES	MBP+ mature oligodendrocyte number
COc1ccc(C2CC(=O)c3c(O)cc(OC4OC(COC5OC(C)C(O)C(O)C5O)C(O)C(O)C4O)cc3O2)cc1OC (centres undefined) [Methyl-Hesperidin]	-0.612
N[C@@H](Cc1cc(I)c(Oc2ccc(O)c(I)c2)c(I)c1)C(=O)O [Liothyronine Sodium]	3.95
CC(=O)/C=C1/C(=O)N(C)c2ccccc21 [Supercinnamaldehyde]	-1.53
CC(C)OC(=O)OCOP(=O)(CO[C@H](C)Cn1cnc2c(N)ncnc21)OCOC(=O)OC(C)C [Tenofovir Disoproxil Fumarate]	-3.29
Nc1cc(Cl)c(NC2=NCCN2)c(Cl)c1 [p-Aminoclonidine hydrochloride]	-0.786
NO [Hydroxylamine hydrochloride]	0.712
Nc1nc(Cl)nc2c1ncn2[C@@H]1O[C@H](CO)[C@@H](O)[C@H]1O [2-Chloroadenosine]	-1.45
Cc1cccc(CC(=O)N2CCc3c2ccc(-c2cn(C)c4ncnc(N)c24)c3F)n1	7.69 ± 0.33
Cc1ccc(F)c(NC(=O)Nc2ccc(-c3cccc4[nH]nc(N)c34)cc2)c1 [Linifanib (ABT-869)]	-5.74
O=C(/C=C\n1cnc(-c2cc(C(F)(F)F)cc(C(F)(F)F)c2)n1)N1CC(F)(F)C1	< -6.35
CC(C)(C)[N+]([O-])=Cc1ccc(S(=O)(=O)O)cc1S(=O)(=O)O	2.35
CN1CCN(C(c2ccccc2)c2ccccc2)CC1 [Cyclizine 2HCl]	-0.776
CC(C)OC(=O)C1=CN(C(=O)c2ccc(F)c(F)c2)CC(C)(C)c2c1[nH]c1ccccc21	1.14
CC[C@H](CO)Nc1nc(NCc2ccccc2)c2ncn(C(C)C)c2n1 [Roscovitine (Seliciclib,CYC202)]	1.16
CC[C@H](CO)Nc1nc(NCc2ccccc2)c2ncn(C(C)C)c2n1 [Roscovitine]	2.43
OCCN(CCO)c1nc(N2CCCCC2)c2nc(N(CCO)CCO)nc(N3CCCCC3)c2n1 [Dipyridamole]	9.37 ± 1.7
Cc1ccc(NC(=O)c2cccc(C(C)(C)C#N)c2)cc1Nc1ccc2ncn(C)c(=O)c2c1	-1.72
CC[C@@H](C)Nc1cc(C(=O)N[C@H]2C[C@H]3CC[C@@H](C2)N3c2ccc(C(=O)C3CC3)cn2)c(C)cc1C(N)=O	< -6.35
C[N+](C)(C)CC(=O)O [Betaine hydrochloride]	-0.59
CSC(=N)NCCC[C@H](N)C(=O)O [S-Methyl-L-thiocitrulline acetate]	-0.872
CN(c1ccccc1CNc1nc(Nc2ccc3c(c2)CC(=O)N3)ncc1C(F)(F)F)S(C)(=O)=O	< -3.34
NS(=O)(=O)c1cc2c(cc1Cl)NC(C1CC3C=CC1C3)NS2(=O)=O (centres undefined) [Cyclothiazide]	1.23
S=C(S)N1CCCC1 [Ammonium pyrrolidinedithiocarbamate]	-1.89
CCN(CC)CC(=O)Nc1c(C)cccc1C [Lidocaine hydrochloride]	-1.23
CCN(CC)CC(=O)Nc1c(C)cccc1C [Lidocaine]	1.77
c1ccc2c(CC3=NCCN3)cccc2c1 [Naphazoline HCl]	0.507
c1ccc2c(CC3=NCCN3)cccc2c1 [Naphazoline hydrochloride]	-0.48

SMILES	MBP+ mature oligodendrocyte number
CC(=O)OCC(=O)[C@@]12OC(C)(C)O[C@@H]1C[C@H]1[C@@H]3C[C@H](F)C4=CC(=O)C=C[C@]4(C)[C@@]3(F)[C@@H](O)C[C@@]12C [Fluocinonide]	8.84
CC(C=CC(=O)NO)=CC(C)C(=O)c1ccc(N(C)C)cc1 (centres undefined) [Trichostatin A (TSA)]	< -6.7
Nc1ncnc2c1nc(Br)n2C1OC2COP(=O)(O)O[C@@H]2C1O (some centres undefined) [8-Bromo-cAMP sodium]	-0.119
OCc1ccccc1O[C@@H]1O[C@H](CO)[C@@H](O)[C@H](O)[C@H]1O [Salicin]	-4.75
CN1C(CCl)Nc2cc(Cl)c(S(N)(=O)=O)cc2S1(=O)=O (centres undefined) [Methyclothiazide]	-4.83
C=CC1=C(C(=O)O)N2C(=O)[C@@H](NC(=O)/C(=N\O)c3csc(N)n3)[C@H]2SC1 [Cefdinir]	-1.82
Cc1cn([C@H]2C=C[C@@H](CO)O2)c(=O)[nH]c1=O [Stavudine (d4T)]	1.24
CC(=O)NS(=O)(=O)c1ccc(N)cc1 [Sulfacetamide Sodium]	2.35
C=C1CC[C@@H]2[C@](C)(CO)[C@H](O)CC[C@@]2(C)[C@@H]1C/C=C1/C(=O)OC[C@H]1O [Andrographolide]	< -4.81
O=C(Nc1cccc(C(=O)Nc2ccc(S(=O)(=O)O)c3cc(S(=O)(=O)O)cc(S(=O)(=O)O)c23)c1)Nc1cccc(C(=O)Nc2ccc(S(=O)(=O)O)c3cc(S(=O)(=O)O)cc(S(=O)(=O)O)c23)c1	0.813
Cc1ccc(S(=O)(=O)Cc2nc(-c3ccc(C(=O)NCc4cccnc4)cc3)oc2C)cc1	< -6.35
COc1cccc2c1C(=O)c1c(O)c3c(c(O)c1C2=O)C[C@@](O)(C(C)=O)C[C@@H]3O[C@H]1C[C@H](N)[C@H](O)[C@H](C)O1 [Daunorubicin HCl]	-5.37
CNC(=O)c1cc(Oc2ccc(NC(=O)Nc3ccc(Cl)c(C(F)(F)F)c3)cc2)ccn1 [Sorafenib]	1.89
CNC(=O)c1cc(Oc2ccc(NC(=O)Nc3ccc(Cl)c(C(F)(F)F)c3)cc2)ccn1 [Sorafenib Tosylate]	4.73
O=C(/C=C/c1ccc(O)cc1)c1ccc(O)cc1O [Isoliquiritigenin]	-0.717 ± 0.17
CS(=O)(=O)OCCCCOS(C)(=O)=O [Busulfan]	0.973
OCc1c[nH]c2ccccc12 [Indole-3-carbinol]	1.46
N#CCNC(=O)c1ccc(-c2ccnc(Nc3ccc(N4CCOCC4)cc3)n2)cc1	< -4.81
Nc1cc(=O)[nH]c(N)n1 [2,4-Diamino-6-pyrimidinone]	-0.805
N[C@@H](Cc1c[nH]c2ccccc12)C(=O)O [L-Tryptophan]	-0.14
Cc1ncc(-c2ccnc(Nc3ccc(S(C)(=O)=O)cc3)n2)n1C(C)C	< -6.01
OC[C@H]1O[C@@H](n2cnc3c(N[C@H]4CCC[C@@H]4O)ncnc32)[C@H](O)[C@@H]1O	0.549
COC1(C2=NCCN2)COc2ccccc2O1 (centres undefined)	0.896
O=C(Nc1cc(C(F)(F)F)cc(C(F)(F)F)c1)Nc1c(Br)cc(Br)cc1-c1nn[nH]n1	-1.85
COc1cc2nccc(Oc3ccc(NC(=O)NC4CC4)c(Cl)c3)c2cc1C(N)=O [Lenvatinib (E7080)]	-1.46
